Reference: the antibiotic and cytotoxicity screens of Wong et al. (2023)
Some of the results follow.

Tested on: S. aureus RN4220
Assay: growth inhibition call (relative growth <= 0.2)
Conditions: 50 µM

| Structure (SMILES) | growth inhibition call |
| --- | --- |
| CO[C@@H](CN(C)S(=O)(=O)c1cn(C)cn1)[C@@H](C)CN(C(=O)Nc1ccc(C(F)(F)F)cc1)[C@@H](C)CO | active |
| Cc1ccc(S(=O)(=O)N(C)C[C@@H]2OCCCC[C@@H](C)Oc3ccc(NC(=O)NC4CCCCC4)cc3C(=O)N([C@@H](C)CO)C[C@H]2C)cc1 | inactive |
| C[C@@H]1CN([C@H](C)CO)C(=O)Cc2cc(NC(=O)Cn3cnnn3)ccc2O[C@H]1CN(C)S(=O)(=O)c1ccc(Cl)cc1 | inactive |
